31 variants from the GPR68 mutational scans of Howard et al. (2025) can be followed below.

The chains are these.
B1: GPR68, Q15743 (parent)
chain: MGNITADNSSMSCTIDHTIHQTLAPVVYVTVLVVGFPANCLSLYFGYLQIKARNELGVYLCNLTVADLFYICSLPFWLQYVLQHDNWSHGDLSCQVCGILLYENIYISVGFLCCISVDRYLAVAHPFRFHQFRTLKAAVGVSVVIWAKELLTSIYFLMHEEVIEDENQHRVCFEHYPIQAWQRAINYYRFLVGFLFPICLLLASYQGILRAVRRSHGTQKSRKDQIQRLVLSTVVIFLACFLPYHVLLLVRSVWEASCDFAKGVFNAYHFSLLLTSFNCVADPVLYCFVSETTHRDLARLRGACLAFLTCSRTGRAREAYPLGAPEASGKSGAQGEEPELLTKLHPAFQTPNSPGSGGFPTGRLA

Variants of B1 are the subject of series [1]. Description: cAMP reporter score (Enrich2 score, wild type = 0); higher = more signal; HEK293T, FACS bins.
Series [2] covers variants of B1. The series is described as follows: surface expression score (Enrich2 score, wild type = 0); higher = more signal; HEK293T, FACS bins.

Scores whose standard error is large were omitted. Two further conditions of the source, in which the scores hardly spread, are not listed. Read del as a deletion of the residues named and ins as an insertion between two positions. For part of these data: The data file names ogerin without a concentration.

In the case of H84A, the cAMP reporter score in series [1] (pH 5.5) was 0.364; in series [1] (pH 6), -1.22; in series [1] (pH 6, modulator: ogerin), 0.136; in series [1] (pH 6.5, modulator: ogerin), -0.589. In series [2], the surface expression score worked out at 1.16.

On to L82del, for which the cAMP reporter score was -1.44 in series [1] (pH 5.5); -0.627 in series [1] (pH 6); -1.4 in series [1] (pH 6, modulator: ogerin); -0.947 in series [1] (pH 6.5, modulator: ogerin). The surface expression score in series [2] was determined as 0.848.

As to Q83_H84insG, the cAMP reporter score is -1.84 in series [1] (pH 5.5); -0.889 in series [1] (pH 6); -1.3 in series [1] (pH 6, modulator: ogerin); -0.455 in series [1] (pH 6.5, modulator: ogerin). Also, in series [2], the surface expression score amounted to 0.385.

In the case of D91_L92insGSG, the cAMP reporter score in series [1] (pH 5.5) was -1.01; in series [1] (pH 6) it was -0.377; in series [1] (pH 6, modulator: ogerin), -0.674; in series [1] (pH 6.5, modulator: ogerin), -1.06. In addition, the surface expression score in series [2] was -0.934.

On to V81del, for which the cAMP reporter score in series [1] (pH 5.5) was -1.57; in series [1] (pH 6), -0.555; in series [1] (pH 6, modulator: ogerin) it was -0.985; in series [1] (pH 6.5, modulator: ogerin), -1.3. Moreover, the surface expression score in series [2] is 1.42.

As for L82_Q83insGSG, the cAMP reporter score in series [1] (pH 5.5) is -1.66; in series [1] (pH 6), -0.96; in series [1] (pH 6, modulator: ogerin) it was -1.76; in series [1] (pH 6.5, modulator: ogerin) it was -1.48. Moreover, in series [2], the surface expression score is -0.29.

In the case of V81_L82del, the cAMP reporter score in series [1] (pH 5.5) was -1.29; in series [1] (pH 6) it was -1.23; in series [1] (pH 6, modulator: ogerin) it was -1.68; in series [1] (pH 6.5, modulator: ogerin), -1.54. Also, the surface expression score in series [2] worked out at 0.251.

On to Y80del, for which the cAMP reporter score in series [1] (pH 5.5) was -1.7; in series [1] (pH 6) it was -1.21; in series [1] (pH 6, modulator: ogerin), -2.42; in series [1] (pH 6.5, modulator: ogerin), -1.34. Moreover, the surface expression score in series [2] is -1.36.

Consider G90_L92del, for which the cAMP reporter score in series [1] (pH 5.5) is -2.02; in series [1] (pH 6), -1.1; in series [1] (pH 6, modulator: ogerin) it was -0.226. The surface expression score in series [2] was -0.887.

As to L92C, the cAMP reporter score in series [1] (pH 5.5) was 0.154; in series [1] (pH 6), -1.14; in series [1] (pH 6, modulator: ogerin), -1.12. Also, the surface expression score in series [2] was -0.116.

Turning to L92A, the cAMP reporter score was 0.174 in series [1] (pH 5.5); -0.189 in series [1] (pH 6); 0.448 in series [1] (pH 6, modulator: ogerin); -0.372 in series [1] (pH 6.5, modulator: ogerin). In addition, the surface expression score in series [2] was -0.147.

For Q79_V81del, the cAMP reporter score was -0.804 in series [1] (pH 5.5); 0.749 in series [1] (pH 6); -0.781 in series [1] (pH 6, modulator: ogerin); -0.756 in series [1] (pH 6.5, modulator: ogerin). Besides, the surface expression score in series [2] is 1.9.

With L78_Q79insGS, the cAMP reporter score was -0.735 in series [1] (pH 5.5); -1.03 in series [1] (pH 6); -1.59 in series [1] (pH 6, modulator: ogerin); -1.09 in series [1] (pH 6.5, modulator: ogerin). The surface expression score in series [2] was -1.12.

On to L78_Q79insG, for which the cAMP reporter score in series [1] (pH 5.5) was -1.27; in series [1] (pH 6) it was -1.12; in series [1] (pH 6, modulator: ogerin), -1.66; in series [1] (pH 6.5, modulator: ogerin) it was -0.126. Moreover, the surface expression score in series [2] is -0.469.

With H84_D85insGS, the cAMP reporter score in series [1] (pH 5.5) was -1.91; in series [1] (pH 6), -1.44; in series [1] (pH 6, modulator: ogerin) it was -1.44; in series [1] (pH 6.5, modulator: ogerin), -1.36. Besides, the surface expression score in series [2] is -0.962.

W87_S88insG: the cAMP reporter score in series [1] (pH 5.5) is -1.51; in series [1] (pH 6), -0.454; in series [1] (pH 6, modulator: ogerin) it was -0.578; in series [1] (pH 6.5, modulator: ogerin), -0.872. Also, the surface expression score in series [2] is -1.26.

Turning to W77Y, the cAMP reporter score in series [1] (pH 5.5) was -1.19; in series [1] (pH 6) it was -0.811; in series [1] (pH 6, modulator: ogerin), -1.25; in series [1] (pH 6.5, modulator: ogerin) it was -1.08. The surface expression score in series [2] was found to be 2.39.

For V81E, the cAMP reporter score in series [1] (pH 5.5) was -0.189; in series [1] (pH 6), -1.76. The surface expression score in series [2] came to 1.26.

On to V81K, for which the cAMP reporter score in series [1] (pH 5.5) is -0.327; in series [1] (pH 6), -0.31; in series [1] (pH 6, modulator: ogerin) it was -0.219; in series [1] (pH 6.5, modulator: ogerin), 0.131. In addition, the surface expression score in series [2] was determined as 1.91.

With V81H, the cAMP reporter score was 1.62 in series [1] (pH 5.5); 3.85 in series [1] (pH 6); 1.27 in series [1] (pH 6, modulator: ogerin); 3.26 in series [1] (pH 6.5, modulator: ogerin). Also, the surface expression score in series [2] was 0.312.

Take V81T: the cAMP reporter score in series [1] (pH 5.5) is -0.925; in series [1] (pH 6) it was -1.09; in series [1] (pH 6, modulator: ogerin) it was -1.66; in series [1] (pH 6.5, modulator: ogerin), -1.12. The surface expression score in series [2] amounted to 0.476.

Consider V81S, for which the cAMP reporter score in series [1] (pH 5.5) is -0.366; in series [1] (pH 6) it was -1.02; in series [1] (pH 6, modulator: ogerin) it was -0.83; in series [1] (pH 6.5, modulator: ogerin), -0.78. Moreover, in series [2], the surface expression score was found to be 1.13.

Turning to V81I, the cAMP reporter score in series [1] (pH 5.5) was -0.916; in series [1] (pH 6), -1.41; in series [1] (pH 6, modulator: ogerin) it was -0.892; in series [1] (pH 6.5, modulator: ogerin), -1.04. In addition, in series [2], the surface expression score is 0.426.

For the variant V81C, the cAMP reporter score is -1.05 in series [1] (pH 5.5); -0.174 in series [1] (pH 6); -0.263 in series [1] (pH 6, modulator: ogerin); -0.54 in series [1] (pH 6.5, modulator: ogerin). In addition, the surface expression score in series [2] is 1.84.

On to V81M, for which the cAMP reporter score in series [1] (pH 5.5) is -0.842; in series [1] (pH 6), -1.01; in series [1] (pH 6, modulator: ogerin), -1.41; in series [1] (pH 6.5, modulator: ogerin) it was -1.63. Further, the surface expression score in series [2] came to 1.06.

In the case of V81N, the cAMP reporter score in series [1] (pH 5.5) is -1.62; in series [1] (pH 6), -1.04; in series [1] (pH 6, modulator: ogerin) it was -1.85; in series [1] (pH 6.5, modulator: ogerin), -0.988. Also, the surface expression score in series [2] is -1.47.

In the case of V81G, the cAMP reporter score in series [1] (pH 5.5) was -1.14; in series [1] (pH 6), -1.16; in series [1] (pH 6, modulator: ogerin), -1.33; in series [1] (pH 6.5, modulator: ogerin) it was -1.09. For the same variant, the surface expression score in series [2] stood at 0.571.

Take V81L: the cAMP reporter score in series [1] (pH 5.5) was -1.32; in series [1] (pH 6), -0.95; in series [1] (pH 6, modulator: ogerin), -1.22; in series [1] (pH 6.5, modulator: ogerin), -0.756. Besides, the surface expression score in series [2] was -0.374.

V81D: the cAMP reporter score in series [1] (pH 5.5) was -0.256; in series [1] (pH 6), -0.032; in series [1] (pH 6, modulator: ogerin), -0.859; in series [1] (pH 6.5, modulator: ogerin), -0.697. The surface expression score in series [2] came out at 0.503.

Consider V81Q, for which the cAMP reporter score was -0.573 in series [1] (pH 5.5); -0.181 in series [1] (pH 6); -0.46 in series [1] (pH 6.5, modulator: ogerin). Further, the surface expression score in series [2] was 1.53.

Consider V81F, for which the cAMP reporter score in series [1] (pH 5.5) is 0.066; in series [1] (pH 6), -0.021; in series [1] (pH 6, modulator: ogerin) it was 0.203; in series [1] (pH 6.5, modulator: ogerin), 0.816. Further, the surface expression score in series [2] is -0.312.
